Drawing on the GPR68 mutational scans of Howard et al. (2025), this text covers cAMP reporter score and surface expression score for 4 variants.

The least precise scores are not listed. Two further conditions of the source, in which the scores hardly spread, are not listed. Names with del lack the residues named; names with ins carry added residues between the positions named. For some of these results: How much ogerin was present is not stated here.

Sequences and labels used below:
B1: GPR68, Q15743 (parent)
chain: MGNITADNSSMSCTIDHTIHQTLAPVVYVTVLVVGFPANCLSLYFGYLQIKARNELGVYLCNLTVADLFYICSLPFWLQYVLQHDNWSHGDLSCQVCGILLYENIYISVGFLCCISVDRYLAVAHPFRFHQFRTLKAAVGVSVVIWAKELLTSIYFLMHEEVIEDENQHRVCFEHYPIQAWQRAINYYRFLVGFLFPICLLLASYQGILRAVRRSHGTQKSRKDQIQRLVLSTVVIFLACFLPYHVLLLVRSVWEASCDFAKGVFNAYHFSLLLTSFNCVADPVLYCFVSETTHRDLARLRGACLAFLTCSRTGRAREAYPLGAPEASGKSGAQGEEPELLTKLHPAFQTPNSPGSGGFPTGRLA

Data set [1] covers variants of B1. As to the kind of experiment: cAMP reporter score (Enrich2 score, wild type = 0); higher = more signal; HEK293T, FACS bins.
Variants of B1 are the subject of data set [2]. As to the kind of experiment: surface expression score (Enrich2 score, wild type = 0); higher = more signal; HEK293T, FACS bins.

MGNITADNSSMSCTIDHTIHQTLAPVVYVTVLVVGFPANCLSLYFGYLQIKRRNELGVYLCNLTVADLFYICSLPFWLQYVLQHDNWSHGDLSCQVCGILLYENIYISVGFLCCISVDRYLAVAHPFRFHQFRTLKAAVGVSVVIWAKELLTSIYFLMHEEVIEDENQHRVCFEHYPIQAWQRAINYYRFLVGFLFPICLLLASYQGILRAVRRSHGTQKSRKDQIQRLVLSTVVIFLACFLPYHVLLLVRSVWEASCDFAKGVFNAYHFSLLLTSFNCVADPVLYCFVSETTHRDLARLRGACLAFLTCSRTGRAREAYPLGAPEASGKSGAQGEEPELLTKLHPAFQTPNSPGSGGFPTGRLA [A52R]: the cAMP reporter score in data set [1] (pH 5.5) was found to be 0.244; in data set [1] (pH 6), 1.45; in data set [1] (pH 6, modulator: ogerin), 0.073; in data set [1] (pH 6.5, modulator: ogerin) it was 0.88. In data set [2], the surface expression score was 0.655.
For MGNITADNSSMSCTIDHTIHQTLAPVVYVTVLVVGFPANCLSLYFGYLQIKPRNELGVYLCNLTVADLFYICSLPFWLQYVLQHDNWSHGDLSCQVCGILLYENIYISVGFLCCISVDRYLAVAHPFRFHQFRTLKAAVGVSVVIWAKELLTSIYFLMHEEVIEDENQHRVCFEHYPIQAWQRAINYYRFLVGFLFPICLLLASYQGILRAVRRSHGTQKSRKDQIQRLVLSTVVIFLACFLPYHVLLLVRSVWEASCDFAKGVFNAYHFSLLLTSFNCVADPVLYCFVSETTHRDLARLRGACLAFLTCSRTGRAREAYPLGAPEASGKSGAQGEEPELLTKLHPAFQTPNSPGSGGFPTGRLA [A52P] the same measures were -1.21, -0.172, -0.604, -1.02 and -2.64.
Regarding MGNITADNSSMSCTIDHTIHQTLAPVVYVTVLVVGFPANCLSLYFGYLQIKQRNELGVYLCNLTVADLFYICSLPFWLQYVLQHDNWSHGDLSCQVCGILLYENIYISVGFLCCISVDRYLAVAHPFRFHQFRTLKAAVGVSVVIWAKELLTSIYFLMHEEVIEDENQHRVCFEHYPIQAWQRAINYYRFLVGFLFPICLLLASYQGILRAVRRSHGTQKSRKDQIQRLVLSTVVIFLACFLPYHVLLLVRSVWEASCDFAKGVFNAYHFSLLLTSFNCVADPVLYCFVSETTHRDLARLRGACLAFLTCSRTGRAREAYPLGAPEASGKSGAQGEEPELLTKLHPAFQTPNSPGSGGFPTGRLA [A52Q], the cAMP reporter score was 0.002 in data set [1] (pH 5.5); -0.563 in data set [1] (pH 6); -0.136 in data set [1] (pH 6.5, modulator: ogerin). Further, the surface expression score in data set [2] was -1.21.
For the variant MGNITADNSSMSCTIDHTIHQTLAPVVYVTVLVVGFPANCLSLYFGYLQIKNRNELGVYLCNLTVADLFYICSLPFWLQYVLQHDNWSHGDLSCQVCGILLYENIYISVGFLCCISVDRYLAVAHPFRFHQFRTLKAAVGVSVVIWAKELLTSIYFLMHEEVIEDENQHRVCFEHYPIQAWQRAINYYRFLVGFLFPICLLLASYQGILRAVRRSHGTQKSRKDQIQRLVLSTVVIFLACFLPYHVLLLVRSVWEASCDFAKGVFNAYHFSLLLTSFNCVADPVLYCFVSETTHRDLARLRGACLAFLTCSRTGRAREAYPLGAPEASGKSGAQGEEPELLTKLHPAFQTPNSPGSGGFPTGRLA [A52N], the cAMP reporter score in data set [1] (pH 5.5) is -0.25; in data set [1] (pH 6) it was -0.72; in data set [1] (pH 6, modulator: ogerin), 0.133; in data set [1] (pH 6.5, modulator: ogerin) it was 0.317. Moreover, the surface expression score in data set [2] is -0.571.
